Reference: patent publication US20180214612A1 (INSTITUTE OF GENETICS AND DEVELOPMENTAL BIOLOGY CHINESE …, published 2018)

Experiments:
[1] = target: T1, Type I collagen prepared from rat tail tendon (rat, UniProt P02454 152-1207; P02466 86-1125); experiment: modified ELISA on a plate coated with rat tail type I collagen; detection with anti-polyhistidine primary antibody and alkaline phosphatase-conjugated secondary antibody, OD 405 nm [1D]
T1 construct: Tissue-derived collagen solution coated on 96-well plates; the two chains are those of natural type I collagen; also called collagen gel

[2] = target: T1, Type I collagen prepared from rat tail …; experiment: modified ELISA on plate coated with rat tail type I collagen, anti-polyhistidine detection, Scatchard analysis
[3] = target: 3D collagen membrane scaffold prepared from bovine skin (bovine); experiment: release assay from 3D bovine collagen membrane loaded with 1.0 nmol protein, PBS, 37° C on a rocker, released SDF-1α measured by ELISA kit

T1 sequence (P02454 152-1207 limits assumed, chain 1 of 2): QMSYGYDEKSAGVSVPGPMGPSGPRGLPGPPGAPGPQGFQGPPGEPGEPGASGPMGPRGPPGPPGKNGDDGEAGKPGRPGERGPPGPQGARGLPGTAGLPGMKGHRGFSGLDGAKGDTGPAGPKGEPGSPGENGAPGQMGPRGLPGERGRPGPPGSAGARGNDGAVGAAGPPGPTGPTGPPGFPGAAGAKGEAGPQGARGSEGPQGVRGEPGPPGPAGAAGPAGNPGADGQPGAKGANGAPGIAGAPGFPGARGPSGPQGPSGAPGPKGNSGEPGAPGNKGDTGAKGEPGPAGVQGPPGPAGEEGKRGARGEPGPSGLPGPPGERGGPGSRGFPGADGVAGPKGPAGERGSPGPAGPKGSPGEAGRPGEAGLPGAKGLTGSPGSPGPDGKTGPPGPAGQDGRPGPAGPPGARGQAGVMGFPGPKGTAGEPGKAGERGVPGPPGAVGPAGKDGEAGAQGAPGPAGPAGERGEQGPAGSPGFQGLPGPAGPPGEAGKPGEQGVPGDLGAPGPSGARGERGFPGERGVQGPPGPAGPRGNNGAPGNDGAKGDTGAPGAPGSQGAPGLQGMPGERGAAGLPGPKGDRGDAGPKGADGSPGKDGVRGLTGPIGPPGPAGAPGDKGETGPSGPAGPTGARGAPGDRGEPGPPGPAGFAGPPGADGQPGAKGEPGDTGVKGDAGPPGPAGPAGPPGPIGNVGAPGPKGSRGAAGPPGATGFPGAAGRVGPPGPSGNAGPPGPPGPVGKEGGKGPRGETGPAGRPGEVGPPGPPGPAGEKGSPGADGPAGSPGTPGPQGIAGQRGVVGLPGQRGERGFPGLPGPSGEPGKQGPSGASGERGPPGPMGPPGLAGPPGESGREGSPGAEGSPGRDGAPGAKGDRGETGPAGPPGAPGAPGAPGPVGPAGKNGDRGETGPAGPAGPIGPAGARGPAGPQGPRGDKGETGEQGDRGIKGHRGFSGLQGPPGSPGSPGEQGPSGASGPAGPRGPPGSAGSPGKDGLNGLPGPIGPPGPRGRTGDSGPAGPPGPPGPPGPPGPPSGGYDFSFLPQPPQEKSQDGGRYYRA
T1 sequence (P02466 86-1125 limits assumed, chain 2 of 2, further chain): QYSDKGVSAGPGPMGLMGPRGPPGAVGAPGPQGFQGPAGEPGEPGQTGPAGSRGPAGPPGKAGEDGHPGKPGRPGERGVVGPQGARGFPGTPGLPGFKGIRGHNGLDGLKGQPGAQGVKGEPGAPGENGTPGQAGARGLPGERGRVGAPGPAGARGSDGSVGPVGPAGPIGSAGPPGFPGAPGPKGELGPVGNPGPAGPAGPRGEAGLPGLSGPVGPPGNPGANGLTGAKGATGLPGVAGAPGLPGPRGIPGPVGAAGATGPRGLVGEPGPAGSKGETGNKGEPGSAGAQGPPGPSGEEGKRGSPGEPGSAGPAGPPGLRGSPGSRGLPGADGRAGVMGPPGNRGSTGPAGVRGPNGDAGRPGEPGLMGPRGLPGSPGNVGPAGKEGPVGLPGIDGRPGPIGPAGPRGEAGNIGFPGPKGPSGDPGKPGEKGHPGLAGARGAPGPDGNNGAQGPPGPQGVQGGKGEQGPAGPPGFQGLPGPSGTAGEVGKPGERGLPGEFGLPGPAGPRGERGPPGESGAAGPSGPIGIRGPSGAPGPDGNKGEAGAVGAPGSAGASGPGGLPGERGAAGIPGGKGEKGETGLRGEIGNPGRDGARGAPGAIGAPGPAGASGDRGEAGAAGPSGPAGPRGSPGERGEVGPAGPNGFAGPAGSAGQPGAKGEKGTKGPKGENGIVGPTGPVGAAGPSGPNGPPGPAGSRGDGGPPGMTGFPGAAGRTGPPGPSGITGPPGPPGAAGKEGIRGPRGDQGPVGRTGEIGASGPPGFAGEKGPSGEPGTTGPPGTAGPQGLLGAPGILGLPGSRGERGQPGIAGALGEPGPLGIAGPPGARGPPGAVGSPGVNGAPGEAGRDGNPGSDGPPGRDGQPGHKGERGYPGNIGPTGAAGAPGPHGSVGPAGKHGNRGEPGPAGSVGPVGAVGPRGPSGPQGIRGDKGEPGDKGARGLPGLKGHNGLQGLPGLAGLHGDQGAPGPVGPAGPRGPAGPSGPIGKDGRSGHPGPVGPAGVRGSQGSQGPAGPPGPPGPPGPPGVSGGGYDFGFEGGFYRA

B1: CBD-SDF-1α (fusion of native human SDF-1α, linker and collagen-binding domain at the C-terminal, with 6×His tag) (ligand)
chain: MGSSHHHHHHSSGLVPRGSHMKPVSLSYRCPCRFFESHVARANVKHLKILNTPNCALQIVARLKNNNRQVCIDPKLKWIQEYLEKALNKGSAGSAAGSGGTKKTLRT
notes: also called CBD-SDF-1α fusion protein with His-tag
[1]
  EC50 (read off the curve): ~1000 nM
[2]
  Kd: 254 nM
[3]
  percent retained on collagen scaffold at day 9: ~50%
